According to publication PMC4468608, “A distinct p53 target gene set predicts for response to the selective p53–HDM2 inhibitor NVP-CGM097” (eLife, 2015):
Further values from the same series stand in other lists.

Tested on: cell lines from the Cancer Cell Line Encyclopedia (CCLE)
Assay: High-throughput cell viability assay, CCLE cell line panel (n = 356)
Type: cell-based, human
Description: Cell lines were partitioned into sensitive and insensitive groups based on compound potency (IC50). […] All other cell lines were obtained from ATCC (American Type Culture Collection), DSMZ (Deutsche Sammlung von Mikroorganismen und Zellkulturen), and HSRRB (Health Science Research Resources Bank) and cultured in RPMI or Dulbecco's modified Eagle's medium plus 10% FBS (Invitrogen, Carlsbad, CA) at 37°C, 5% CO2.

COc1cc2c(cc1OC(C)C)[C@H](c1ccc(Cl)cc1)N(c1ccc(N(C)C[C@H]3CC[C@H](N4CCNC(=O)C4)CC3)cc1)C(=O)C2 [NVP-CFC218]
sensitivity call (OCI-AML2, TP53 WT): sensitive (Sensitivity call for each compound was applied according to a cut-off of 4 µM for IC50 and -50% for Amax) | Amax (OCI-LY10, TP53 MUT): -8.00% | sensitivity call (OCI-LY10, TP53 MUT): insensitive (Sensitivity call for each compound was applied according to a cut-off of 4 µM for IC50 and -50% for Amax) | Amax (OPM-2, TP53 MUT): -2.80% | sensitivity call (OPM-2, TP53 MUT): insensitive (Sensitivity call for each compound was applied according to a cut-off of 4 µM for IC50 and -50% for Amax) | Amax (OVCAR-4, TP53 MUT): 3.62% | sensitivity call (OVCAR-4, TP53 MUT): insensitive (Sensitivity call for each compound was applied according to a cut-off of 4 µM for IC50 and -50% for Amax) | Amax (OVSAHO, TP53 MUT): -32.55% | sensitivity call (OVSAHO, TP53 MUT): insensitive (Sensitivity call for each compound was applied according to a cut-off of 4 µM for IC50 and -50% for Amax) | Amax (P12-ICHIKAWA, TP53 MUT): -93.77% | sensitivity call (P12-ICHIKAWA, TP53 MUT): sensitive (Sensitivity call for each compound was applied according to a cut-off of 4 µM for IC50 and -50% for Amax) | Amax (PC-3, TP53 MUT): -20.98% | sensitivity call (PC-3, TP53 MUT): insensitive (Sensitivity call for each compound was applied according to a cut-off of 4 µM for IC50 and -50% for Amax) | Amax (PC-14, TP53 MUT): -25.08% | sensitivity call (PC-14, TP53 MUT): insensitive (Sensitivity call for each compound was applied according to a cut-off of 4 µM for IC50 and -50% for Amax) | Amax (PE/CA-PJ49, TP53 WT): -24.87% | sensitivity call (PE/CA-PJ49, TP53 WT): insensitive (Sensitivity call for each compound was applied according to a cut-off of 4 µM for IC50 and -50% for Amax) | Amax (PK-1, TP53 MUT): 1.38% | sensitivity call (PK-1, TP53 MUT): insensitive (Sensitivity call for each compound was applied according to a cut-off of 4 µM for IC50 and -50% for Amax) | Amax (PSN1, TP53 MUT): -6.25% | sensitivity call (PSN1, TP53 MUT): insensitive (Sensitivity call for each compound was applied according to a cut-off of 4 µM for IC50 and -50% for Amax) | Amax (Panc 04.03, TP53 MUT): -4.12% | sensitivity call (Panc 04.03, TP53 MUT): insensitive (Sensitivity call for each compound was applied according to a cut-off of 4 µM for IC50 and -50% for Amax) | Amax (RCM-1, TP53 MUT): -5.50% | sensitivity call (RCM-1, TP53 MUT): insensitive (Sensitivity call for each compound was applied according to a cut-off of 4 µM for IC50 and -50% for Amax) | Amax (RERF-GC-1B, TP53 MUT): -0.99% | sensitivity call (RERF-GC-1B, TP53 MUT): insensitive (Sensitivity call for each compound was applied according to a cut-off of 4 µM for IC50 and -50% for Amax) | Amax (RERF-LC-AI, TP53 WT): 1.17% | sensitivity call (RERF-LC-AI, TP53 WT): insensitive (Sensitivity call for each compound was applied according to a cut-off of 4 µM for IC50 and -50% for Amax) | Amax (RERF-LC-MS, TP53 MUT): -40.30% | sensitivity call (RERF-LC-MS, TP53 MUT): insensitive (Sensitivity call for each compound was applied according to a cut-off of 4 µM for IC50 and -50% for Amax) | Amax (RKO, TP53 WT): -56.51% | sensitivity call (RKO, TP53 WT): insensitive (Sensitivity call for each compound was applied according to a cut-off of 4 µM for IC50 and -50% for Amax) | Amax (RPMI-8402, TP53 MUT): -4.88% | sensitivity call (RPMI-8402, TP53 MUT): insensitive (Sensitivity call for each compound was applied according to a cut-off of 4 µM for IC50 and -50% for Amax) | Amax (RT-112, TP53 MUT): 2.33% | sensitivity call (RT-112, TP53 MUT): insensitive (Sensitivity call for each compound was applied according to a cut-off of 4 µM for IC50 and -50% for Amax) | Amax (Reh, TP53 WT): -80.40% | sensitivity call (Reh, TP53 WT): sensitive (Sensitivity call for each compound was applied according to a cut-off of 4 µM for IC50 and -50% for Amax) | Amax (S-117, TP53 MUT): 0.17% | sensitivity call (S-117, TP53 MUT): insensitive (Sensitivity call for each compound was applied according to a cut-off of 4 µM for IC50 and -50% for Amax) | Amax (SBC-5, TP53 MUT): -1.36% | sensitivity call (SBC-5, TP53 MUT): insensitive (Sensitivity call for each compound was applied according to a cut-off of 4 µM for IC50 and -50% for Amax) | Amax (SCC-25, TP53 MUT): -16.71% | sensitivity call (SCC-25, TP53 MUT): insensitive (Sensitivity call for each compound was applied according to a cut-off of 4 µM for IC50 and -50% for Amax) | Amax (SF-295, TP53 MUT): -1.59% | sensitivity call (SF-295, TP53 MUT): insensitive (Sensitivity call for each compound was applied according to a cut-off of 4 µM for IC50 and -50% for Amax) | Amax (SH-10-TC, TP53 MUT): -2.17% | sensitivity call (SH-10-TC, TP53 MUT): insensitive (Sensitivity call for each compound was applied according to a cut-off of 4 µM for IC50 and -50% for Amax) | Amax (SHP-77, TP53 MUT): -4.02% | sensitivity call (SHP-77, TP53 MUT): insensitive (Sensitivity call for each compound was applied according to a cut-off of 4 µM for IC50 and -50% for Amax) | Amax (SJRH30, TP53 MUT): -35.44% | sensitivity call (SJRH30, TP53 MUT): insensitive (Sensitivity call for each compound was applied according to a cut-off of 4 µM for IC50 and -50% for Amax) | Amax (SK-BR-3, TP53 MUT): 2.51% | sensitivity call (SK-BR-3, TP53 MUT): insensitive (Sensitivity call for each compound was applied according to a cut-off of 4 µM for IC50 and -50% for Amax) | Amax (SK-LMS-1, TP53 MUT): -25.67% | sensitivity call (SK-LMS-1, TP53 MUT): insensitive (Sensitivity call for each compound was applied according to a cut-off of 4 µM for IC50 and -50% for Amax) | Amax (SK-LU-1, TP53 MUT): 1.54% | sensitivity call (SK-LU-1, TP53 MUT): insensitive (Sensitivity call for each compound was applied according to a cut-off of 4 µM for IC50 and -50% for Amax) | Amax (SK-MEL-30, TP53 MUT): -2.63% | sensitivity call (SK-MEL-30, TP53 MUT): insensitive (Sensitivity call for each compound was applied according to a cut-off of 4 µM for IC50 and -50% for Amax) | Amax (SK-MES-1, TP53 MUT): -5.06% | sensitivity call (SK-MES-1, TP53 MUT): insensitive (Sensitivity call for each compound was applied according to a cut-off of 4 µM for IC50 and -50% for Amax) | Amax (SK-N-AS, TP53 WT): -3.46% | sensitivity call (SK-N-AS, TP53 WT): insensitive (Sensitivity call for each compound was applied according to a cut-off of 4 µM for IC50 and -50% for Amax) | Amax (SK-OV-3, TP53 MUT): 0.64% | sensitivity call (SK-OV-3, TP53 MUT): insensitive (Sensitivity call for each compound was applied according to a cut-off of 4 µM for IC50 and -50% for Amax) | Amax (SNU-182, TP53 MUT): 4.52% | sensitivity call (SNU-182, TP53 MUT): insensitive (Sensitivity call for each compound was applied according to a cut-off of 4 µM for IC50 and -50% for Amax) | Amax (SU-DHL-4, TP53 MUT): -29.17% | sensitivity call (SU-DHL-4, TP53 MUT): insensitive (Sensitivity call for each compound was applied according to a cut-off of 4 µM for IC50 and -50% for Amax) | Amax (SUP-M2, TP53 WT): -96.77% | sensitivity call (SUP-M2, TP53 WT): sensitive (Sensitivity call for each compound was applied according to a cut-off of 4 µM for IC50 and -50% for Amax) | Amax (SW480, TP53 MUT): -19.98% | sensitivity call (SW480, TP53 MUT): insensitive (Sensitivity call for each compound was applied according to a cut-off of 4 µM for IC50 and -50% for Amax) | Amax (SW 900, TP53 MUT): -4.18% | sensitivity call (SW 900, TP53 MUT): insensitive (Sensitivity call for each compound was applied according to a cut-off of 4 µM for IC50 and -50% for Amax) | Amax (SW 1353, TP53 MUT): -52.12% | sensitivity call (SW 1353, TP53 MUT): insensitive (Sensitivity call for each compound was applied according to a cut-off of 4 µM for IC50 and -50% for Amax) | Amax (SW1417, TP53 MUT): 7.38% | sensitivity call (SW1417, TP53 MUT): insensitive (Sensitivity call for each compound was applied according to a cut-off of 4 µM for IC50 and -50% for Amax) | Amax (SW 1783, TP53 MUT): -4.15% | sensitivity call (SW 1783, TP53 MUT): insensitive (Sensitivity call for each compound was applied according to a cut-off of 4 µM for IC50 and -50% for Amax) | Amax (T98G, TP53 MUT): -2.69% | sensitivity call (T98G, TP53 MUT): insensitive (Sensitivity call for each compound was applied according to a cut-off of 4 µM for IC50 and -50% for Amax) | Amax (TE 617.T, TP53 WT): -70.15% | sensitivity call (TE 617.T, TP53 WT): sensitive (Sensitivity call for each compound was applied according to a cut-off of 4 µM for IC50 and -50% for Amax) | Amax (TOV-21G, TP53 WT): -55.82% | sensitivity call (TOV-21G, TP53 WT): insensitive (Sensitivity call for each compound was applied according to a cut-off of 4 µM for IC50 and -50% for Amax) | Amax (TT2609-C02, TP53 MUT): -12.03% | sensitivity call (TT2609-C02, TP53 MUT): insensitive (Sensitivity call for each compound was applied according to a cut-off of 4 µM for IC50 and -50% for Amax) | Amax (U-937, TP53 MUT): -25.04% | sensitivity call (U-937, TP53 MUT): insensitive (Sensitivity call for each compound was applied according to a cut-off of 4 µM for IC50 and -50% for Amax) | Amax (VMRC-RCZ, TP53 WT): 0.87% | sensitivity call (VMRC-RCZ, TP53 WT): insensitive (Sensitivity call for each compound was applied according to a cut-off of 4 µM for IC50 and -50% for Amax) | Amax (WM-115, TP53 WT): -82.69% | sensitivity call (WM-115, TP53 WT): sensitive (Sensitivity call for each compound was applied according to a cut-off of 4 µM for IC50 and -50% for Amax) | Amax (WSU-DLCL2, TP53 MUT): 8.42% | sensitivity call (WSU-DLCL2, TP53 MUT): insensitive (Sensitivity call for each compound was applied according to a cut-off of 4 µM for IC50 and -50% for Amax)
